Laboratory results: the RNAGym collection of RNA variant scans (doi:10.7554/elife.90254)
The source gives no read counts; variants with many changes may rest on few reads.

B1: OR4K15 (parent)
chain: GUUAACGGUCAUAGGCCAUGGAAACUAGGAGCACCAUUUCGCUGCCAGUGAAGAAAUGAACAAAGAAAAUCUGGGCCAGGCAGGCAUCAAAAGAAAUAGUCUUGCGCUCAACCAGAAAGUCUGUAAUCAUUUUAAGGGUA

Variants of: B1
Assay: self-cleavage, relative activity (ratio to wild type); higher = more cleavage; in vitro, sequencing; the parent is a self-cleaving ribozyme

Variant	self-cleavage
GUUAACGGUCAUAGGCCGUGGAAACUAGGAGCACCAUUUCGCUGCCAGUGAAGAUAUGAACAAAGAGAAUCUGGGCCAGGCAGGCAUCAAAAGAAAUAGACUUGCGCUCAACCAGAAGGUCCGUAAUCAUUUUAAGGGUA [A18G A55U A67G U100A A118G U122C]	0.47
GUUAGCGGUCAUAGGCCAUGGAAACUAGGAGCACCAUUUCGCUGCCAGUGAAGAAAUGAACAAAGAAACUCAGGGCCAGGCAGGCAUCAAAAGAAAUAGUCUUGCGCUCAACCAGAAAGUCUGUAGUCAUUUUAAGGGUG [A5G A69C U72A A126G A140G]	0.16
GUUAACGGUCAUAGGCCGUGGAAACUAGGAGCACCAUUCCGCUGCCAGUGAAGAAAUGGACAAAGAAAAUCUGGGCCGGACAGGCAUCAAAAGUAAUAGUCUUGCGCUCAACCAGAAAGUCUGUAAUCAUUUUAAGGGUA [A18G U39C A59G A78G G80A A94U]	0.24
GUUAACGGUCAUAGGCCAUGGAAACUAGGAGCACCACUUCGCUGCCAGUGAAGGAAUGAACAAAGAAAAUCUGGGCCAGGCAGGCAUCAAAAGAAAUAGUCUCGCGCUCAACCAGAAAGCCUGUAAUCAUUUUAAGGGUA [U37C A54G U103C U120C]	0.94
GUUAACGGUCAUAGGCCAUGGAAACUAGGAGCACCAUUUCGCUGCCAGUGAAGAAAUGAUCAAAGAAAAUCAGGGCCAGGCAGGCACCAAAAGAAAUAGUCUUGCGCUCAACCAGAAAGUCUGUAAUCGUUUUAAGGGUA [A60U U72A U87C A129G]	0.11
GUUAACGGUCAUAGGCCAUGGAAACUAGGAGCACCAUUUCGCUGCCAGUGAAGAAAUGAAUAAAGAAAGACUGGGCCAGGCAGGCAUCAAAAGAAAUAGUCUUGCGCUCAACCAGAAAGUCUGUAAUCAUUUUAAGGGUA [C61U A69G U70A]	0.93
GUUAACGGUCAUAGGCCAUGGAAACUAGGAGCACCAUUUCGCUGCCAGUGAAGGAAUGAACAAAGAAAAUCUGGGCCAGGCAGGCAUCAAAAGAAAUAGUGUUGCGCUCGACCAGAAGGUCUGUAAUCAUUUUAAGGGUA [A54G C101G A110G A118G]	0.02
GUUAACGGUCAUAGGCCAUGGAAACUAGGAGCACCAUUUCGCUGCCUGUGAAGGAAUGAACAAAGAGAAUCUGGGCCAGGCAGGCAUCAAAAGAAAUAGUCUUGCGCUCAACCAGAAAGUCUGUAAUCAUUUUAAGGGUA [A47U A54G A67G]	0.17
GUUAACGGUCAUAGGCCACGGAAACUAGGAGCACCAUUUCGCUGCCAGUGAAGAAAUGAACAAAGAAAAUCUGGGCCAGGCAGGCAUCAGAAGAAAUGGUCUUGCGCUCAACCAGAAAGUCUGUAAUCAUUUUAAGGGUA [U19C A90G A98G]	0.22
GUUAACGGUCAUAGGCCAUGGAAACUAGGAGCGCCAUUUCGCUGCCAGUGAAGAAAUGAGCAAAGAAUAUCUGGGCCAGGCAGGCAUCAAAAGAAAUAGUCUUGCGCUCAACCAGAAAGUCUGUAAUCAUUUUAAGGGUA [A33G A60G A68U]	1.18
GUUAACGGUCAUAGGCCAUGGAAACUAGGAGCACCAUUUCGCUGCCAGCGAAGAAAUGAACAAAGAAAAUCUGGGCCGGGCAGGCAUCAAAAGAAAUAGUCUUGCGCUCAUCCAGAAAGUCUGUAAUCAGUUUAAGGGUA [U49C A78G A111U U130G]	0.02
GUUAACGGUCAUAGGCCAUGGAAACUAGGAGCACCAUUUCGCUGCCAGUGAGGAAAUGAACAAAGAAAACCUGGGCCAGGCAGGCAUCACAAGAAAUAGUCUUGCGCUCAACCAGAAAGUCCGUAAUCAUAUUAAGGGCA [A52G U70C A90C U122C U131A U139C]	0.11
GUUAACGGUCAUAGGCCAUGGAAACUAGGAGCACCGUUUCGCUGCCGGUGAAGAAAUGAACAAAGAAAAUCUGGGCCAGGCAGGCAUCAAAAGAAAUAGUCUUGCGCUCAACCGGAAAGUCUGUAAUCAUUUUAAGGGUA [A36G A47G A114G]	0.25
GUUAACGGUCAUAGGCCAUGGAAACUAGGAGCACCAUUUCGCUGCCAGUGAAGAAAUGAACAAAGAAAAUCUGGGCCAGGCGGGCAUCAAAAGAAAUAGUCUUGCGCUCAACCGGAAAGUCUGUAAUCAUUCUAAGGGUA [A82G A114G U132C]	0.04
GUUAACGGUCAUUGGCCAUGGGAACUAGGAGCACCGUUUCGCUGCCAGUGAAGAAAUGAACAAAGAAAGUCUGGGCCAGGCAGGCAUCAAAAGAAAUAGUCUUGCGCUCAACCAGAAAGUCUGUAGUCAAUUUAAGGGUA [A13U A22G A36G A69G A126G U130A]	0.3
GUUAACGGUCAUAGGCCAUGGGAACUAGGAGCACCAUUUCGCUGCCAGUGAAGAAAUGAACAAAGAAAAUCUGGGCCAGGCAGGCAUCAAAAGAAAUAGUCUUGCGCUCAACCAGAAAGUCUGUAUUCACUUUAAGGGUA [A22G A126U U130C]	0.92
GUUAACGGUCAUAGGCCAUGGAAACUAGGAGCACCAUUUCGCUGCCAGUGAAGAAAUGAACAAGGAAAAUCUGGGCCAGGCAGGCAUCAAAAGAAAUAGUCAUGCGCUCGACCAGAAAGUCUGUAAUCAUUUUAAGGGUA [A64G U102A A110G]	0.08
GUUAACGGUCAUAGGCCAUGGAAACUAGGAGCACCAUUUCGCUGCCAGUGAAGAAAUGAACAAAGAAAAUCUGGGCCAGGCAGGCAUCAAAAGAAUUAGUCUCGCGCUCAACCAGAAAGUCCGUAAUCAUUUUAAGGGUA [A96U U103C U122C]	0.81
GUUAACGGUCAUAGGCCAUGGAAACUAGGAGCACCAUUUCGCUGCCAGUGAAGAAAUGAACAAAGAAAAUCUGGGCCAGGCAGGCAUCAAAAGAGAUAGUCUUGCGCUCAACCAGUAAGUCUGUAACCAUUUUAAGGGUA [A95G A116U U127C]	0.02
GUUAACGGUCAUAGGCCAUGGAGACUAGGAGCACCAUUUCGCUGCCAGUGAAGAAACGGACAAAGAAAAUCUGGGCCAGGCAGGCAUCAAAAGAAAUAGUCUUGCGCUCAACCAGAAAGUCUGUAAUCACUUUAAGGGUA [A23G U57C A59G U130C]	0.81
GUUAACGGUCAUAGGCCAUGGAGACUAGGAGCACCAUUUCGCUGCCAGAGAAGAAAUGAACAAAGAAAAUCUGGGCCAGGCAGGCAUCAAAAGAAAUAGUCUUGCGCUCAACCAGAAAGUCUGUAAUCAUUUUGAGGGUA [A23G U49A A134G]	1.08

Variant	self-cleavage
GUUAACGGUCAUAGGCCAUGGUAACUAGGAGCACCAUUUCGCUGCCAGUGAAGAGAUGAACAAAGAAAAUCUGGGCCAGGCAGGCAUCAAAAGAAAUAGUCUUGCGCUCAACCAGAAAGUCUGUAACCAUUUUAAGGGUA [A22U A55G U127C]	0.86
GUUAACGGUCAUAGGCCAUGGAAACUAGGAGCACCAUUUCGCUGCCAGUGAAGAAGUGAACAAAGAAAAUCUGGGCCAGGCAGGCAUCAAACGGAAUAGUCUUGCGCUCAACCAGUAGGUCUGUAAUCAUUUUAAGGGUA [A56G A92C A94G A116U A118G]	0.19
GUUAACGGUCAUAGGCCAUGGAAACUAGGAGCACCAUUUCGCUGCCAGUGAAGAAAUGAACAAAGAAAAUCUGGGCCGGGCAGGCUUCAAGAGAAAUAGUCUUGCGCUCAACCAGAGAGUCUGUAAUCAUCUUAAGGGUA [A78G A86U A91G A117G U131C]	0.13
GUUAACGGUCAUAGGCCGUGGAAACUAGGAGCACCAUUUCGUUGCCAGUGAAGAAAUGAACAAAGAAAAUCUGGGCCAGGCAGGCAUCUAAAGAAAUAGUCUUGCGCUCAACCAGAAAGUCUGUAAUCAUUUUAAGGGUA [A18G C42U A89U]	1.1
GUUAACGGUCAUAGGCCAUGGAAACUGGGAGCACCAUUUCGCCGCCAGUGGAGAAAUGAACAAAGAAAAUCUGGGCCAGGCAGGCAUCAAAAGAAAUAGUCUUGCGCUCAACCAGAAAGUCUGUGAUCAUUUUAAGGGUA [A27G U43C A51G A125G]	0.26
GUUAGCGGUCAUAGGCCAUGGAAACUAGGAGCACCAUUUCGUUGCCAGUGAAGAAAUGACCAAAGAAAAUCUGGGCCAGGCAGGCAUCAAAAGAAAUAGUCUUGCGCUCAACCAGAAAGUCUGUAAUCAUUUUAAGGGUA [A5G C42U A60C]	1.07
GUUAACGGUCAUAGGCCAUGGAAACUAGGAGCACCAUUUCGCUGCCAGUGAGGAAAUGAACAAAGAAAAACUGGGCCAGGCAGGCAUCAAAAGAAAUAGUCUUGCGCUCAACCAGAAAGUCUGCAAUCAUUUUAAGGGUA [A52G U70A U124C]	1.14
GUUAACGGUCAUAGGCCAUGGAAACUAGGAGCACCAUUUCGCUGCCAGUGAUGAAAUGAACAAAGAAAAUCUGGGCCAGGCAGGCAUCAAAAGAAAUAGUCUUGUGCUCAACCAGAAACUCUGUAAUCAUUUUAAGGGUA [A52U C105U G119C]	0.17
GCUAACGGUCAUAGGCCAUGGAAACUAGGAGCACCAUUUCGCUGCCAGCGAAGAAAUGAGCAAAGAAAAUCUGGGCCAGGCAGGCAUCAAAAGAAAUAGUCUUGCGCUCAACCAGAAAGUCUGUAAUCAUUUUAAGGGUA [U2C U49C A60G]	0.66
GUUAACGGUCAUAGGCCAUGGAAACUAGGAGCACCAUUUCGCUGCCAGUGAAGAAAUGAACAAAGAAAAUCUGGGCCAGGCAGGCUUCAAAAGAAAUAGUCUUGCGCUCAACCAGAAAGUCCGCAAUCAUUUUAAGGGUA [A86U U122C U124C]	1.56
GUUAACGGUCAUAGGCCAUGGAAACUAGGAGCACCAUUUCGCUGCCAGUGAAGAAAUGAACAAAGGAAAUCUGGGCCAGGCAGGCAUCAAAAGAAAAAGUCUUGCGCUCAACCAGACAGUCUGUAAUCAUUUUAAGGGUA [A66G U97A A117C]	0.38
GUUAACGGUCAUAGGCCAUGGAGACUAGGAGCACCAUUUCGCUGCCAGUGAAGAAAUGAACAAAGAAGAUCUGGGCCAGGCAGGCAUCAAAAGAAAUGGUCUUGCGCUCAACCAGAAAGUCUGUAAUCAUUUUAAGGGUA [A23G A68G A98G]	0.23
GUUAACGGUCAUAGGCCAUGGGAACUAGGAGCACCAUUUCGCUGCCAGUGAAGAAAUGAACAAAGAAGAUCUGGGCCAGGCAGGCACCAAAAGAAAUAGUCUUGCGCUCAACCAGAAAGUCUGUAAUCAUUUUAAGGGUA [A22G A68G U87C]	1.09
GCUAACGGUCAUAGGCCAUGGAAACUAGGAGCACCACUUCGCUGCCAGUGAAGAAAUGAACAAAGAGAAUCUGGGCCAGGCAGGCGUCAAAAGAAAUAGUCUUGCGCUCAACCAGAAAGUCUGUAAUCAUUUUAAGGGUA [U2C U37C A67G A86G]	1.23
GUUAACGGCCAUAGGCCAUGGAAACUAGGAGCACCAUUUCGCUGCCAGUGAAGAAAUGAACAAGGAAAAUCUGGGCCAGGCGGGCAUCAAAAGAAAUAGUCUUGCGCUCAACCAGAAAGUCUGUAAUCAUUUUAAGGGUA [U9C A64G A82G]	0.3
GUUAACGGUCAUAGGCCAUGGAAACUAGGAGCACCAUUCCGCUGCCGGUGAAGAAAUGGGCAAAGAAAAUCUGGGCCUGGCAGGCAUCAAAAGAAAUAGUCUUGCGCUCAACCAGAAAGUCUGUAAUCAUUUUAGGGGUA [U39C A47G A59G A60G A78U A135G]	0.43
GUUAACGGUCAUAGGCCAUGGAAACUAGGAGCGCCAUUUCGCUGCCAGUAAAGAAAUGAACAAAGAAAAUCUGGGCCAGGCAGGCAUCAAAAGAAAUAGUCUUGCGCUCAACCAGAAAGUCUGUAAUCAUUUUGAGGGUA [A33G G50A A134G]	0.91
GUUAACGGUCAUAGGCCAUGGAAACUAGGAGCACCAUUUCGCUGCCAGUGAAGAAGUGGACAAAGAAAAUCUGGGCCAGGCAGGCAUCAAAAGAAAUAGUCUUGCGCUCAACAAGAAAGUCUGUAAUCACUUUAAGGGUA [A56G A59G C113A U130C]	0.04
GUUAACGGUCAUAGGCCAUGGAAACUAGGAGCACCAUUUCGCUGCCCGCGAAGAAAUGAGCAAAGAAAAUCUGGGCCAGGCAAGCAUCAUAAGAAAUAGUCUUGCGCUCAACCAGAAAGUCUGUAAUCAUUUUAAGGGUA [A47C U49C A60G G83A A90U]	1.51
GUUAACGGUCAUAGGCCAUGGAAUCUAGGAGCACCAUUUCGCUGCCAGUGAAGAAAUGAACAAAGAAAAUCUGGGCCCGGCAGGCAACAAAAGAAAUAGUCUUGCGCUCAACCAGAAAGUCUGUAAUCAUUUUAAGGGUA [A24U A78C U87A]	0.15
